# According to PubChem BioAssay AID651940 (Sanford-Burnham Center for Chemical Genomics, 2012):
# A number of entries come with more than one value. This is not the full list of results. There may be further records.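 The calls were made as follows: active = IC50 below 50 µM, and active in both the human and murine receptor assays; inactive = the rest.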 The records of an entry are repeats in other runs, samples, wells, individuals or studies. Records carry a tag for their origin. A, B and so on number the origins entry by entry.
# Target: C-X-C chemokine receptor type 6 (Mus musculus) (UniProt Q9EQ16)
# UniProt Q9EQ16, sequence (Q9EQ16 whole entry, looked up): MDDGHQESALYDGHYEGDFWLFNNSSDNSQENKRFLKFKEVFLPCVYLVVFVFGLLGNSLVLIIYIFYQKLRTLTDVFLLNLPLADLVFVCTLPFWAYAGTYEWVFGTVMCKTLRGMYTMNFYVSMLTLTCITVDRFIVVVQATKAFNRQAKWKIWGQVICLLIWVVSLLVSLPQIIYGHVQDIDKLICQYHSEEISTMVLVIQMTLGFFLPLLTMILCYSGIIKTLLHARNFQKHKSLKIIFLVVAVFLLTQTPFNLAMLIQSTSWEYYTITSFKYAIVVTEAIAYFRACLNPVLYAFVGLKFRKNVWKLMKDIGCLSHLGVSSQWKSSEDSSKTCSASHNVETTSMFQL
# Test: mouse CXCR6 receptor antagonists, SAR follow-up, selectivity assay for human CXCR6 antagonist project, cell-based, mouse ortholog, CHO-K1, luminescence (AID 651940)
# Details: CHO-K1 mCXCR6 beta-arrestin PathHunter
structure (smiles),measurement,value
COc1cc(C(=O)NC2CC3CCCC(C2)N3CC(=O)Nc2ccccc2Cl)cc(OC)c1OC (stereo unspecified),IC50,inactive [sample A] and 18.2 µM [sample B]
